± gives the standard deviation. The full ranking holds about 6,600 sequences; the median of “pre-steady-state target cleavage rate” is about 0.07, and the highest 2% start at about 0.72. Only a part is listed here, and it is no random draw.

The record followed here is the supplement of paper PMC10338343.

The test system of this experiment is MIWI (PIWIL1) piRISC loaded with Kctd7 piRNA (30 nt). Kind of experiment: pre-steady-state target cleavage rate (min^-1); MIWI and MILI are mouse PIWI proteins and EfPiwi is from a freshwater sponge; tags in brackets are library labels; higher = faster piRNA-guided slicing of the target. Particulars: guide: Kctd7 piRNA 5'p-UGUUAAUCUCUCAGAGAAGGUGACAGUGAU; auxiliary factor: 500 nM mouse GTSF1. Here is the method:
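Cleave-'n-Seq: a library of target RNAs (target site embedded in constant flanks, ACAGCATTCCGCGTTAGTGATATCCG... 5' flank; DNA-blocked outside the site) at 0.1 nM was incubated with 1 nM active mouse MILI or MIWI piRISC (synthetic 5'-monophosphorylated piRNA guide) with or without 500 nM mouse GTSF1 at 33 °C for 1 min to 16 h. Uncleaved targets were sequenced and normalised to non-target controls, and the pooled three trials were fitted to a burst-and-steady-state model to give the pre-steady-state cleavage rate (min^-1; k3 is constrained to at most 1e-4). Sequence is the target site only; target names encode pairing extent (gX:gY) and contiguous / 1-mismatch / 2-mismatch / bulge geometry. Fits with R² ≤ 0 are excluded.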
For the sequence UAGACUGUGACCUUCUCAGAGAGAUUAACA, the “pre-steady-state target cleavage rate” value is 0.193 ± 0.012. The value for UAGUGUGUCUGGUUCUCUGAGAGAUUAACA was 0.0198 ± 0.003; that for UACACUGUCACCUACUCUGAGAGUUUAACA was 0.235 ± 0.039; that for UUCAGUGUCACCUUCUGUGAGAGAUUAACA was 0.495 ± 0.025. The value for UAGACUGUCACCUUGUCUGAGACAUUAACA was 0.195 ± 0.031. With UAGUCUGUCACCUUGUCUGUGAGAUUAACA the figure was 0.111 ± 0.011; with UAGUGUGGUCACCUUCUCUGAGAGAUUAACA, 0.636 ± 0.041.

Consider UACACUGUCACCUUCUCACUGAGAUUAACA, for which the “pre-steady-state target cleavage rate” value stood at 0.00822 ± 0.0052.

UAGUGACAGACCUUCUCAGAGAGAUUUACA: the “pre-steady-state target cleavage rate” value was determined as 0.00727 ± 0.004.

In the case of UUCACUGUCACCUUCGCUGAGAGAUUAACA, the “pre-steady-state target cleavage rate” value is 0.574 ± 0.05. UACACUGUCACCAAGUCUGAGAGAUUAUGA: the “pre-steady-state target cleavage rate” value turned out to be 0.00543 ± 0.0052. With UAGUGAGUCACCUACUCUGAGAGAAUAACA the figure was 0.227 ± 0.045. With UAGUGACAGAACUUCUCUGAGAGAUUAACA the figure was 0.0127 ± 0.0037. With UACACUGUCACCUUCUCUGAGAGAAUUUGA the figure was 0.247 ± 0.067.

On to UAGACUGUCACCUUCUCUGACACAUUAACA, for which the “pre-steady-state target cleavage rate” value was 0.00898 ± 0.0018. As to AUCAGUGUCACCUUCUCUGAGAGAAUAACA, the “pre-steady-state target cleavage rate” value was 0.342 ± 0.06.

In the case of UAGUCUGUCACCUUCUCGGAGAGAUUAACA, the “pre-steady-state target cleavage rate” value is 0.254 ± 0.018. With UAGUCUCUCUCCUUCUCUGAGAGAUUAACA the figure was 0.0631 ± 0.0077; with UAGUGACUCGCCUUCUCUGAGAGAUUAACA, 0.262 ± 0.033; with UAGUGACUCAGCUUCUCUGAGUGAUUAACA, 0.0122 ± 0.0042.

As to UACACUGUCACCAUCUCUGAGAGAUUUACA, the “pre-steady-state target cleavage rate” value turned out to be 0.265 ± 0.027. Turning to UAGUGACUCACCAUCUCUGAGAGAAUAACA, the “pre-steady-state target cleavage rate” value came to 0.0242 ± 0.0062.

As for UAGUCUGUCAGGUUCUCUGAGAGAUUAAGA, the “pre-steady-state target cleavage rate” value was 0.0112 ± 0.0039. The value for UAGUGACACAGCUUCUCUGACAGAUUAACA was 0.0208 ± 0.0042; that for AUCACUGUCUCCUUCUCUGACAGAUUAACA was 0.311 ± 0.023; that for UAGUGUGUCACCUAUCUCUGAGAGAUUAACA was 0.329 ± 0.033. UACACUGUCACCUUCUCUGAGACUAUAAGA: the “pre-steady-state target cleavage rate” value stood at 0.00356 ± 0.0034. As to UAGUGACUCACCUUCUGUGAGAGAUUAUGA, the “pre-steady-state target cleavage rate” value was 0.013 ± 0.0041.

UACACUGUCACCUUCUGAGAGAGAUUUUGA: the “pre-steady-state target cleavage rate” value was determined as 0.0616 ± 0.019.

Take UAGUGAGUCACCUUCUCUGAGAGAUUAAGA: the “pre-steady-state target cleavage rate” value worked out at 0.235 ± 0.03.

For the sequence UAGUCUGUCACCUUCUCUGACAGAUAAACA, the “pre-steady-state target cleavage rate” value was 0.0101 ± 0.0041. The value for UACACUGACAGCUUCUCUGAGAGAUUAACA was 0.573 ± 0.041; that for AUCACUGUCACCUUGUCUGAGAGAUUAUCA was 0.523 ± 0.08; that for UAGACUGUCACCUUCUCAGAGAGAUUUACA was 0.202 ± 0.027. With AUCACUGUCAGCUUCUCUGAGAGAUUAAGA the figure was 0.107 ± 0.016. With UUCACUGUCACCUUCUCUGAGAGAUAAACA the figure was 0.337 ± 0.039; with UAGUCUGUCACCUUCUCUGAGAAUUAACA, 0.0266 ± 0.014; with UAGUGAGUCACCUUCUCAGAGAGAUUAUCA, 0.146 ± 0.028. Consider UAGUGAGUCACCUUCACUGAGAGUUUAACA, for which the “pre-steady-state target cleavage rate” value came to 0.0872 ± 0.022. The value for UUCACGGUCACCUUCUCUGAGAGAUUAACA was 0.687 ± 0.032; that for UACACUGUCACGUUGUCUGAGAGAUUAACA was 0.35 ± 0.026.

Consider UAGUGAGUCACCUUCUCUGAGAGAUUUUGA, for which the “pre-steady-state target cleavage rate” value came to 0.21 ± 0.053. The value for AUCACUGUCACCUUGUCUGAGAGAAUAACA was 0.377 ± 0.098. With UAGUGACAGACCAUCUCUGUGAGAUUAACA the figure was 0.0035 ± 0.0021. With UAGUGUGUCACCUUCUCUCAGAGUUUAACA the figure was 0.0491 ± 0.0094; with UAGUGAGACACCAUCUCUGAGAGAUUAACA, 0.337 ± 0.028; with UACACUGUCACACUUCUCUGAGAGAUUAACA, 0.544 ± 0.023. Regarding UUGACUGUCACCUUCUCUGAGAGAUAAACA, the “pre-steady-state target cleavage rate” value was 0.359 ± 0.036. The value for UACACUGUCACCUUCUCUGAGAGAUAAUCA was 0.0879 ± 0.02; that for UAGUGACACACCUACUCAGAGAGAUUAACA was 0.0388 ± 0.011. The value for AUCACUGUCACCUUCACUGAGAGAUUAUGA was 0.13 ± 0.029; that for UUCACAGUCACCUUCUCUGAGAGAUUAUCA was 0.242 ± 0.039. For AUCACUGACACCUUCUCAGAGAGAUUAACA, the “pre-steady-state target cleavage rate” value came to 0.322 ± 0.026. As for AUCACACACACCUUCUCUGAGAGAUUAUGA, the “pre-steady-state target cleavage rate” value was 0.0722 ± 0.021. The value for AUCACUGUCACCUACUCUGAGAGAUAAACA was 0.318 ± 0.038; that for UAGUCUGUCACCUUCUCUGAGACUAUAACA was 0.0038 ± 0.0027. With UAGUGAGUCACCUUCUCUGAGACAUUUUGA the figure was 0.014 ± 0.0046; with AUCAGUGUCACCUUCUCUGAGACAUUAACA, 0.193 ± 0.014; with UAGUGACUCACGUACUCUGAGAGAUUAACA, 0.0037 ± 0.003. In the case of UAGUGAGUCACCUUCGUCUGAGAGAUUAACA, the “pre-steady-state target cleavage rate” value amounted to 0.0209 ± 0.0054. The value for UUCACAGUCACCUUCUCUGAGAGAUAAACA was 0.316 ± 0.034; that for UAGUGUGUCACCUUGUGUGAGAGAUUAACA was 0.181 ± 0.012; that for UACACUGUGACCUUCACUGAGAGAUUAACA was 0.301 ± 0.029. With UAGUCUGACACCUUCUCUGAGACAUUAACA the figure was 0.041 ± 0.006; with UUCACUGACACCUUGUCUGAGAGAUUAACA, 0.18 ± 0.021; with UAGUGAGUCACCUUCUCUCAGAGAUUAAGA, 0.0139 ± 0.0058. For the sequence UAGUGACACACCUUCUCUGAGACUUUAACA, the “pre-steady-state target cleavage rate” value stood at 0.00354 ± 0.0027.

In the case of UACACUGUCACCUUCUCUGACAGAUUAUGA, the “pre-steady-state target cleavage rate” value stood at 0.0184 ± 0.0069.

Consider UAGUGUCACACCUUCUCUGAGAGAUUAACA, for which the “pre-steady-state target cleavage rate” value worked out at 0.529 ± 0.033. For UAGUGACUCACCUUCUCUGAGUGAUUAUCA, the “pre-steady-state target cleavage rate” value amounted to 0.00976 ± 0.0032. Turning to UAGUGACAGUCCUUCUCUGAGAGAUUAAUA, the “pre-steady-state target cleavage rate” value is 0.0658 ± 0.0091. Regarding UAGAGAGUCACCUUCUCUGAGAGAUUAACA, the “pre-steady-state target cleavage rate” value is 0.797 ± 0.035.
